# According to the supplement of paper PMC4723716:
# ± gives the uncertainty stated by the source. Over roughly 9,900 compounds, “viability index relative to DMSO control” has its median near 1; the lowest 2% begin near 0.85. This is one part of the list.
# Tested on: Plasmodium falciparum NF54 stage V gametocytes
# Test: viability index relative to DMSO control (fraction); higher = less gametocyte killing
# Conditions: 2.5 µM, library set: Broad Institute DOS, incubation time: 72 h
# Experimental: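 Broad DOS informer set and blood-stage-active DOS compounds screened in duplicate at 2.5 µM against P. falciparum NF54 stage V gametocytes with the serum-free one-step SaLSSA (1536-well): 72 h at 37 °C under low oxygen, then saponin lysis and MitoTracker Red CMXRos staining, with high-content imaging. Viability index = viable-object count divided by the plate mean of DMSO wells (0 = killed, about 1 = inactive).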
row,Compound,viability index
1,CCC(=O)N1C[C@]2(CCN(CC2)C(=O)Nc2ccccc2F)c2c([nH]c3cc(OC)ccc23)[C@@H]1CO,0.642 ± 0.081
2,C[C@@H]1CCCCO[C@H](CN(C)CC2CCCCC2)[C@H](C)CN([C@H](C)CO)C(=O)c2cc(NC(=O)Nc3ccc(C(F)(F)F)cc3)ccc2O1,1.14 ± 0.023
3,C/C=C/c1ccc2c(c1)[C@@H]1[C@@H](CCN1S(=O)(=O)c1ccccc1OC)[C@H](CO)N2C,0.947 ± 0.08
4,O=C(O)C[C@H]1C=C[C@H](NC(=O)Nc2cc(F)ccc2F)[C@H](CO)O1,1.01 ± 0.14
5,C[C@H]1CCCCO[C@@H](CN(C)Cc2ccc(C(=O)O)cc2)[C@@H](C)CN([C@@H](C)CO)C(=O)c2cc(N(C)C)ccc2O1,1.04 ± 0.12
6,CCCNC(=O)[C@H]1[C@H](CO)[C@H]2Cn3c(cccc3=O)[C@H]2N1Cc1cccc(F)c1,1.03 ± 0.0043
7,C/C=C/c1ccc([C@@H]2[C@H](C#N)N(C(=O)NC3CCCCC3)[C@H]2CO)cc1,1.016 ± 0.0013
8,COC(=O)C[C@@H]1C[C@H]2c3cc(NC(=O)C4CCOCC4)ccc3O[C@H]2[C@H](CO)O1,1.121 ± 0.0024
9,C[C@H](CO)N1C[C@H](C)[C@H](CN(C)C(=O)Nc2cccc3ccccc23)OCCCC[C@H](C)Oc2ccc(NC(=O)CCC(F)(F)F)cc2C1=O,1.04 ± 0.048
10,COc1ccc(S(=O)(=O)N(C)C[C@@H]2OCCCC[C@@H](C)Oc3ccc(NC(=O)Cc4ccccc4)cc3C(=O)N([C@@H](C)CO)C[C@H]2C)cc1,0.9785 ± 0.0051
11,C[C@@H]1CN([C@@H](C)CO)C(=O)Cc2cc(NC(=O)CCC(F)(F)F)ccc2O[C@@H]1CN(C)CC1CC1,1.04 ± 0.075
12,O=C(C[C@H]1CC[C@H](NC(=O)c2ccc(F)cc2)[C@H](CO)O1)NCCc1ccccc1,1.19 ± 0.084
13,CC[C@@H]1C/C=C\C[C@H](c2ccc(OC)cc2OC)NC(=O)[C@H](C)CC(=O)N1,1.01 ± 0.058
14,C[C@@H]1CCCCO[C@@H](CN(C)Cc2ccc(Cl)c(Cl)c2)[C@@H](C)CN([C@H](C)CO)C(=O)c2cc(NC(=O)c3ccncc3)ccc2O1,1.01 ± 0.094
15,COc1ccc(C#Cc2ccc([C@@H]3[C@@H](CO)N4CCCCN(C)C[C@H]34)cc2)cc1,1.09 ± 0.063
16,CCS(=O)(=O)N1[C@H](CO)[C@H](c2ccccc2)[C@H]1CN(C(C)=O)C1CCCC1,0.978 ± 0.0092
17,N#C[C@@H]1[C@H](c2ccccc2-c2cccc(F)c2)[C@H](CO)N1S(=O)(=O)c1cccc(F)c1,0.933 ± 0.066
18,O=C1CCC(=O)N[C@H](c2ccc3c(c2)OCO3)C/C=C\CCN1,1.06 ± 0.017
19,CNC[C@@H]1OCCCC[C@@H](C)Oc2ccc(NC(=O)Nc3ccc(OC)cc3)cc2C(=O)N([C@H](C)CO)C[C@@H]1C,1.14 ± 0.024
20,N#C[C@H]1[C@H](c2ccc(C#Cc3cccc(F)c3)cc2)[C@@H](CO)N1C(=O)C1CCOCC1,1.12 ± 0.025
21,COC(=O)C[C@H]1CC[C@@H]2[C@H](COC[C@H](O)CN2S(=O)(=O)c2ccccc2OC)O1,1.06 ± 0.019
22,CC(=O)N1[C@@H](CO)[C@@H](c2ccccc2)[C@@H]1CN(CC1CCC1)C(=O)CN(C)C,1.03 ± 0.047
23,C/C=C/c1ccc([C@@H]2[C@@H](CO)N3C(=O)CN(Cc4ccc(F)cc4)C[C@@H]23)cc1,1.074 ± 0.0064
24,O=C(NCCN1CCCC1)[C@H]1[C@H](CO)[C@H]2Cn3c(cccc3=O)[C@H]2N1Cc1ccccn1,1.06 ± 0.055

row,Compound,viability index
1,O=C(C[C@@H]1CC[C@H]2[C@@H](COC[C@@H](O)CN2C(=O)c2cccnc2)O1)NCC1CC1,1.1 ± 0.11
2,C[C@H](NC(=O)C[C@@H]1C[C@H]2c3cc(NS(=O)(=O)c4ccc(F)cc4)ccc3O[C@H]2[C@@H](CO)O1)c1ccccc1,1.083 ± 0.0022
3,C[C@@H]1CN([C@@H](C)CO)S(=O)(=O)c2ccc(-c3ccncc3)cc2O[C@H]1CN(C)S(C)(=O)=O,0.934 ± 0.054
4,CCC(=O)N1C[C@@]2(C1)CN(Cc1cccc(Cl)c1)[C@H](CO)c1[nH]c3cc(OC)ccc3c21,1.01 ± 0.033
5,Cc1ccc(S(=O)(=O)N2CC[C@@H]3[C@@H](CO)Nc4ccc(-c5cccc(C(=O)N(C)C)c5)cc4[C@@H]32)cc1,0.837 ± 0.012
6,COCCNC[C@H]1[C@H](c2ccccc2)[C@H](CO)N1c1nc(C)c(C)s1,0.97 ± 0.012
7,CCNC(=O)C[C@@H]1CC[C@@H]2[C@H](COC[C@@H](O)CN2C(=O)c2ccccn2)O1,1.065 ± 0.0067
8,OC[C@@H]1[C@@H]2c3ccccc3NC[C@@H]2N1CC1CCOCC1,1.02 ± 0.058
9,CN1C(=O)c2cc(NC(=O)c3cscn3)ccc2OC[C@H]2O[C@H](CC(=O)NCc3ccc(Cl)c(Cl)c3)CC[C@@H]21,1.02 ± 0.095
10,CCCNC(=O)N1C[C@H](O)COC[C@H]2O[C@H](CC(=O)OC)CC[C@@H]21,1.105 ± 0.0098
11,COCC(=O)Nc1ccc2c(c1)OC[C@H](C)N(C)C[C@@H](C)[C@H](OC)CN(C)C2=O,0.9536 ± 0.0082
12,CCC(=O)N[C@@H]1CC[C@H](CC(=O)NCc2ccccc2F)O[C@@H]1CO,1.05 ± 0.13
13,COc1cccc(C#Cc2ccc([C@@H]3[C@@H](CO)N(C(=O)c4ccccn4)[C@H]3C#N)cc2)c1,1.012 ± 0.0077
14,O=C(c1cccnc1)N1CC(=O)N2[C@@H](CO)[C@H](c3ccc(-c4ccccc4F)cc3)[C@@H]2C1,1 ± 0.039
15,C[C@@H]1CN([C@@H](C)CO)C(=O)c2cc(-c3ccc(C#N)cc3)cnc2O[C@H]1CN(C)Cc1cccnc1,1.06 ± 0.056
16,O=C(C[C@@H]1CC[C@@H](NC(=O)Nc2ccc(C(F)(F)F)cc2)[C@@H](CO)O1)NCc1cccc(F)c1,1.134 ± 0.011
17,CCCC#Cc1cnc2c(c1)C(=O)N([C@@H](C)CO)C[C@@H](C)[C@H](CN(C)C(=O)Nc1cc(F)ccc1F)O2,1.05 ± 0.041
18,C[C@H](CO)N1C[C@H](C)[C@H](CN(C)C(=O)NC2CCCC2)Oc2cc(-c3cncnc3)ccc2S1(=O)=O,0.976 ± 0.11
19,COc1ccc2c3c([C@@H](CO)N(C)C[C@]33CN(CC4CC4)C3)n(C)c2c1,1.04 ± 0.048
20,CN1C(=O)c2cc(NC(=O)c3cccc(Cl)c3)ccc2OC[C@H]2O[C@H](CC(=O)NC3CCCCC3)CC[C@@H]21,1.11 ± 0.11
21,CO[C@@H]1CN(C)C(=O)c2ccc(NC(=O)C3CCC3)cc2OC[C@H](C)N(Cc2ccccn2)C[C@H]1C,1.08 ± 0.046
22,C/C=C/c1ccc([C@@H]2[C@@H](CN(C)C(C)=O)N(C(=O)NC(C)C)[C@H]2CO)cc1,1.06 ± 0.016
23,CNC(=O)C[C@@H]1CC[C@H]2[C@H](COc3ccc(NC(=O)c4ccccc4F)cc3C(=O)N2C)O1,1.15 ± 0.059
24,C[C@@H]1CCCCO[C@@H](CN(C)C(=O)C2CCCCC2)[C@@H](C)CN([C@@H](C)CO)C(=O)c2cc(NS(=O)(=O)c3ccccc3)ccc2O1,1.08 ± 0.023

row,Compound,viability index
1,O=C(NC1CCCC1)[C@@H]1[C@@H](CO)[C@@H]2Cn3c(ccc(C4=CCCCC4)c3=O)[C@H]1N2CC1CC1,1.08 ± 0.043
2,CO[C@H]1CN(C)C(=O)c2cc(NS(=O)(=O)c3cccc(Cl)c3)ccc2OC[C@@H](C)NC[C@H]1C,1.1 ± 0.053
3,O=C(C[C@H]1CC[C@H]2[C@@H](COC[C@H](O)CN2C(=O)c2ccncc2)O1)NCc1cc(F)cc(F)c1,1.03 ± 0.051
4,CCCNC(=O)N1CC(=O)N2[C@H](CO)[C@H](c3ccc(C#CCC4CCCC4)cc3)[C@@H]2C1,0.986 ± 0.031
5,Cc1noc(C)c1S(=O)(=O)N(C)C[C@H]1OCc2cnnn2CCCC(=O)N([C@H](C)CO)C[C@@H]1C,1.04 ± 0.05
6,COCC(=O)N1CC[C@@]2(CC1)CN([C@H](CO)c1c2c2ccc(OC)cc2n1C)C(=O)c1ccccn1,1.03 ± 0.18
7,O=C(C[C@H]1CC[C@@H](NC(=O)C2CCOCC2)[C@H](CO)O1)NCC1CCCCC1,1.03 ± 0.091
8,C[C@@H]1CN([C@H](C)CO)C(=O)CCCn2cc(nn2)CO[C@@H]1CN(C)C(=O)Nc1ccc2c(c1)OCO2,1.046 ± 0.0089
9,COc1ccccc1CN1[C@@H]2CNC[C@H]1[C@@H]2c1ccc(-c2cccnc2)cc1,1.09 ± 0.1
10,CS(=O)(=O)N1Cc2cc(C(=O)NCC3CC3)nc(-c3cccc(-c4cncnc4)c3)c2[C@H]1CCO,1.046 ± 0.0077
11,O=C(Nc1cc(F)ccc1F)N1CC(=O)N2[C@H](CO)[C@@H](c3ccc(/C=C/c4ccccc4)cc3)[C@H]2C1,1.08 ± 0.048
12,CCS(=O)(=O)Nc1ccc2c(c1)C(=O)N(C)[C@@H]1CC[C@@H](CC(=O)N[C@H]3CCN(Cc4ccccc4)C3)O[C@H]1CO2,1.12 ± 0.038
13,COc1ccccc1-c1ccc([C@H]2[C@@H]3CN(Cc4cccc(F)c4)C[C@H]2N3)cc1,1.02 ± 0.084
14,O=C(Nc1ccccc1F)N[C@H]1CC[C@H](CCNC(=O)C2CC2)O[C@@H]1CO,1.06 ± 0.055
15,CN1C(=O)c2cc(NC(=O)c3cnccn3)ccc2OC[C@H]2O[C@@H](CC(=O)N[C@H]3CCN(Cc4ccccc4)C3)CC[C@@H]21,0.9678 ± 0.0058
16,CO[C@@H]1CN(C)C(=O)c2ccc(NS(=O)(=O)c3cccc(Cl)c3)cc2OC[C@@H](C)N(C(=O)Cc2cccnc2)C[C@H]1C,1.06 ± 0.14
17,CCCNC(=O)N1C[C@@H]2N[C@H](C1)[C@H]2c1ccc(-c2cccc(F)c2)cc1,1.02 ± 0.052
18,C[C@@H]1CN([C@@H](C)CO)C(=O)c2cc(NC(=O)Nc3cccc4ccccc34)ccc2O[C@@H](C)CCCCO[C@H]1CN(C)Cc1ccc(C(F)(F)F)cc1,1.08 ± 0.23
19,C[C@@H]1CCCCO[C@@H](CN(C)S(=O)(=O)c2cn(C)cn2)[C@@H](C)CN([C@H](C)CO)C(=O)c2cc(N(C)C)ccc2O1,1.1 ± 0.072
20,CN(C)C(=O)C[C@H]1C[C@@H]2c3cc(NC(=O)Nc4ccc(F)cc4)ccc3O[C@@H]2[C@@H](CO)O1,1.089 ± 0.0089
21,CS(=O)(=O)N1[C@H](C#N)[C@H](c2ccc(-c3ccccc3F)cc2)[C@@H]1CO,1.141 ± 0.002
22,O=C(O)C[C@@H]1C[C@H]2c3cc(NC(=O)Nc4ccc(C(F)(F)F)cc4)ccc3O[C@H]2[C@@H](CO)O1,1.037 ± 0.0066
23,C[C@H](CO)N1C[C@H](C)[C@H](CN(C)Cc2ccc(C(F)(F)F)cc2)OCCCC[C@H](C)Oc2ccc(NC(=O)Nc3cccc4ccccc34)cc2C1=O,1.15 ± 0.076
